Results reported in article PMC3162478 (Nature, 2011).
One block for each binder: values may come before it.

Target: T1, FimD usher, full-length (undigested), with C-terminal Strep-tag II (Escherichia coli, UniProt P30130 46-878)
T1 sequence: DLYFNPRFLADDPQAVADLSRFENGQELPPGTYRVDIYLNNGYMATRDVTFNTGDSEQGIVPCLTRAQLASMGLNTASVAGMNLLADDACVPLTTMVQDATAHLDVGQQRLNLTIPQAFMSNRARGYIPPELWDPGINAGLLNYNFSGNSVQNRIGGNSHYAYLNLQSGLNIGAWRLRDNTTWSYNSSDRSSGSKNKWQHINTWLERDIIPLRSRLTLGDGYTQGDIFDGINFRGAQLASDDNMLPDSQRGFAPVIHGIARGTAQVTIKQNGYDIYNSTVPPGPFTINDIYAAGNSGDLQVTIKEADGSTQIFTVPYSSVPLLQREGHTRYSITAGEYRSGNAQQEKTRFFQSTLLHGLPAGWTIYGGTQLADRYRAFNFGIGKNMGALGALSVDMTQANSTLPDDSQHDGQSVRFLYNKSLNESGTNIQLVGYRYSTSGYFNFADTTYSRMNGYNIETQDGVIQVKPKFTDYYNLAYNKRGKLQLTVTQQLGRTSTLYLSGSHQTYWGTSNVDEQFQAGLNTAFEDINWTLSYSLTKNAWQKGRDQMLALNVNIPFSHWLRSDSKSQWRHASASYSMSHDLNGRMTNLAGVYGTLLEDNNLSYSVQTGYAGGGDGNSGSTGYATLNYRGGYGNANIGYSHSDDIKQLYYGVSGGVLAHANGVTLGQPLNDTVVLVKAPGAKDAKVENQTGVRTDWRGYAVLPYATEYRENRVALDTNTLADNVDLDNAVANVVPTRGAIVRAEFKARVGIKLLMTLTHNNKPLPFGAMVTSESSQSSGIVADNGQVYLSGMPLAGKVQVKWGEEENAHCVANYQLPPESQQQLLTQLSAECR
Assay: AUC

stoichiometry N: 1
B1: FimH adhesin (natural protein)
chain: not shown

stoichiometry N: 1
B2: FimC:FimH chaperone:adhesin complex (complex)
chain 1: GVALGATRVIYPAGQKQEQLAVTNNDENSTYLIQSWVENADGVKDGRFIVTPPLFAMKGKKENTLRILDATNNQLPQDRESLFWMNVKAIPSMDKSKLTENTLQLAIISRIKLYYRPAKLALPPDQAAEKLRFRRSANSLTLINPTPYYLTVTELNAGTRVLENALVPPMGESTVKLPSDAGSNITYRTINDYGALTPKMTGVME
chain 2: [letters of about 300 residues left out]
